According to publication PMC4336329 (PLoS ONE, 2015):
In all, about 310,000 compounds went through this assay and about 14,000 (4.5%) showed an effect of 50% or more. The effect is printed as a negative number. The list shows a part of the results.

Target: human ether-à-go-go-related gene (hERG) potassium channel (human, UniProt Q12809)
Assay: primary screen, population patch clamp on CHO cells stably expressing hERG
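Further: peak tail current of the secondary pulse compared with the same well before compound.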

Chain of human ether-à-go-go-related gene (hERG) potassium channel (Q12809 whole entry, looked up): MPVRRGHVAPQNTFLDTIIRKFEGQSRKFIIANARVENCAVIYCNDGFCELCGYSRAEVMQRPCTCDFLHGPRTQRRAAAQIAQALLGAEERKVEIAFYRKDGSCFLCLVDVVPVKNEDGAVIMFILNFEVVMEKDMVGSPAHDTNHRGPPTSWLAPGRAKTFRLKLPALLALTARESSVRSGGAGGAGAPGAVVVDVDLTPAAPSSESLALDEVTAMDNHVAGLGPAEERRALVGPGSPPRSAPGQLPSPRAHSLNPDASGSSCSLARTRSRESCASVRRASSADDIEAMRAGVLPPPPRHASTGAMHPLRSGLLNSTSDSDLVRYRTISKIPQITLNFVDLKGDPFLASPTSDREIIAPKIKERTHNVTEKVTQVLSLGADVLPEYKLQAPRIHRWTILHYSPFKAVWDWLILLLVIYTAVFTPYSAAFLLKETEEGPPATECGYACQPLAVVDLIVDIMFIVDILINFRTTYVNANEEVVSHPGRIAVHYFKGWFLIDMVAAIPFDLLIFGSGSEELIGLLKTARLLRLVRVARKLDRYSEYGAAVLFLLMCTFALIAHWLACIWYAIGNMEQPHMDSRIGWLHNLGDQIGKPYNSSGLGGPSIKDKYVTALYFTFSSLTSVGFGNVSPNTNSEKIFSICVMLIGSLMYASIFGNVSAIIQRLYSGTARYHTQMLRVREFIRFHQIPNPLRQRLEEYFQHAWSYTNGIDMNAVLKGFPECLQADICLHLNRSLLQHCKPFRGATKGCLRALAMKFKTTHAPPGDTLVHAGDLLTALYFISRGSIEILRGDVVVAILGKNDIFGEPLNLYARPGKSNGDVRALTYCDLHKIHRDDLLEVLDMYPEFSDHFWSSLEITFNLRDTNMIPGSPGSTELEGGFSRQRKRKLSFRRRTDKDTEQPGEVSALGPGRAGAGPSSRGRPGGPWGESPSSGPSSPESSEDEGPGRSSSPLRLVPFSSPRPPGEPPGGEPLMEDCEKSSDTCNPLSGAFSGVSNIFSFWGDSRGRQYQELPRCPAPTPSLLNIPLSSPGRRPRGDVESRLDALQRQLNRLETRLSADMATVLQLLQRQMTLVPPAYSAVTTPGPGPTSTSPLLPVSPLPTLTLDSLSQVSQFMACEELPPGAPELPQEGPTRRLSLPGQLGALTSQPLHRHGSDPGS

Compound	hERG current change (%, negative = inhibition) at 10uM
COc1cc(OC)cc(C(=O)N[C@H](C(=O)Nc2ccc3c(c2)OCO3)C(C)C)c1	11%
O=C(OCc1nnc(-c2ccccc2)o1)c1cc(S(=O)(=O)N2CCOCC2)c(Cl)cc1Cl	-19.9%
CCOC(=O)c1[nH]ncc1CN1CCN(Cc2ccc(C)cc2)C(CCO)C1 (centres unmarked)	-38.8%
Cc1ccc(/C=N/NC(=O)c2cccc(S(=O)(=O)Nc3ccccc3Cl)c2)o1	-31%
O=C(Oc1cccc(-n2cnnn2)c1)c1ccccc1	9.86%
O=C(CN(Cc1ccco1)S(=O)(=O)c1ccccc1)N/N=C/c1cccc(O)c1	-1.69%
CCCCCC(=O)N/N=C(\C)c1ccc(Cl)cc1	9.87%
N#Cc1ccc(Cn2ccnc2C(=O)Nc2ccccc2)cc1	-87%
CC(C)C(=O)Nc1ccc2c(c1)C(=O)N(CCC(=O)O)C2=O	20.7%
COc1ccc(C(=O)Nc2ccccc2C(=O)NCCN2CCOCC2)cc1OC	2.71%
OCCn1c(CSc2nnc(-c3ccco3)n2-c2ccccc2)nc2ccc(Cl)cc21	-24.2%
COc1ccc(Cl)cc1N1C(=O)CN(Cc2cc(OC)c(OC)c(OC)c2)C1=S	14.3%
CC1CCN(CC(O)COC2CC(C)CC(C)(C)C2)CC1.Cl (centres unmarked)	-54.5%
CCOc1cc(C(=O)N=c2sccn2C)cc(Br)c1OC	8.84%
COc1ccc(NC(=O)NC2CCCCC2C)cc1 (centres unmarked)	6.49%
Cc1ccc(C(=O)N/N=C\c2c(C)nn(-c3ccccc3)c2Cl)cn1	-15.7%
Cc1cc(C)cc(N2C(=O)N(c3ccccc3C)C3CS(=O)(=O)CC32)c1 (centres unmarked)	5.12%
O=C(CCS(=O)(=O)Cc1ccccc1)Nc1nnc(C(F)(F)F)s1	15.8%
COC(=O)CNc1nc(Cl)nc(NC2CCCCC2)n1	8.02%

Compound	hERG current change (%, negative = inhibition) at 10uM
CN1CCN(c2ccc(-c3ccnn3C(=O)Nc3ccccc3)cc2)CC1	-11.5%
COc1ccc(-c2ccc3c(c2)S(=O)(=O)c2cccc(C(=O)NCCOc4ccccc4)c2C3=O)cc1OC	-3.55%
Cc1cccc(N(C(=O)c2ccc(CN3CCOCC3)o2)C(C(=O)NC2CCCCC2)c2ccc(F)cc2)c1 (centres unmarked)	19.7%
CN(CCCNC(=O)c1nn(C)c2c1CS(=O)(=O)c1ccccc1-2)Cc1ccccc1	-46.9%
COc1ccc(C(=O)NCCNc2ccc([N+](=O)[O-])cn2)cc1	-13.3%
COc1nccc(C(F)(F)F)c1C(=O)NC(=O)Nc1c(C)cccc1C	-3.84%
Cc1ccc(Nc2ncnc3c2oc2ccccc23)cc1	-6.97%
CCCn1c(N2CCN(C(=O)Nc3ccc(Cl)cc3)CC2)nc2ccccc21	-16.8%
CNC(=O)NC(=O)C(OC(=O)Cc1cccc(C(F)(F)F)c1)c1ccccc1 (centres unmarked)	17%
CCOc1ccc(NC(=O)COc2nsnc2N2CCOCC2)cc1	-41.7%
CCn1cc(Cl)c(C(=O)N2N=C(c3ccc4ccccc4c3)CC2c2ccccc2O)n1 (centres unmarked)	0.0432%
COc1ccc(-c2sc3ccccc3c2C#CC2(O)CCCCC2)cc1	15%
COc1ccc(C2=NOC3(CC(=O)N(c4ccc(F)cc4)C3=O)C2)c(OC)c1 (centres unmarked)	4.15%
Cc1cccc2c1ncc1c(=O)n(-c3ccccc3)[nH]c12	11.1%
CCOC(=O)C(=O)NNc1ccc(C)cc1	-2.03%
O=C(/C=C/c1ccco1)Nc1sc2c(c1C(=O)O)CCC2	-2.95%
CCC(=O)Nc1ccc(N2CCOCC2)c(S(=O)(=O)Nc2ccc(Cl)cc2)c1	-25.2%
COc1ccc(/C=N/NC(=O)c2ccncc2)cc1CN1CCOCC1	3.71%
O=C(COc1ccc(S(=O)(=O)N2CCOCC2)cc1Cl)N1CCCC1	17%

Compound	hERG current change (%, negative = inhibition) at 10uM
Cc1cc2oc(=O)cc(CN3CCCCC3C)c2cc1C (centres unmarked)	12.4%
COc1ccc(CC(=O)NCc2nnc(SCC(=O)Nc3nccs3)n2C)cc1	17.3%
CCOC(=O)N1CCC(NC(=O)C(C)n2c3ccccc3c3cnn(C)c(=O)c32)CC1 (centres unmarked)	-1.12%
Cc1nnc(NC(=O)CSc2nnc3c(n2)[nH]c2ccc(Br)cc23)s1	22.6%
Cc1cc(NC(=O)C2CC2)ncc1NC(=O)C12CC3CC(CC(C3)C1)C2	-9.69%
CC(C)C[C@H](NC(=O)NCc1ccccc1Cl)C(=O)O	-1.49%
CC(/C=C/c1cccs1)=C\C(=O)O	25.3%
CC1=NN(C(C#N)c2cccc([N+](=O)[O-])c2)C(C)(C)C1 (centres unmarked)	-11.2%
CCC(=O)N1c2ccc(S(=O)(=O)N3CCCC3)cc2CC1C (centres unmarked)	17.4%
CCOC(=O)CSc1nnc(-c2ccccc2NC(=O)c2ccccc2)o1	12.2%
COc1cc(/C=N/S(=O)(=O)c2ccccc2)cc(OC)c1O	5.7%
COc1ccc(CCNC(=O)c2ccnc(C(C)(C)C)c2)cc1OC	-8.22%
CN1CCN(c2ccccc2NC(=O)c2sc3ccccc3c2Cl)CC1	12%
O=C(Oc1cc(=O)oc2ccccc12)c1cccnc1Cl	22.1%
CC1=NN(c2ccc([N+](=O)[O-])cc2)C(c2ccccc2)C1 (centres unmarked)	4.35%
CCc1ccc(/C=C\C(=O)N2CCc3ccccc3C2)cc1	14.6%
O=C(c1cc(-c2ccccc2)nc2ccccc12)N1CCC2(CC1)OCCO2	3.96%
CCCCN(C)C(=O)C1CCN(Cc2cccnc2)CC1	9.71%
